The campaign covered roughly 39,000 compounds. About 220 (0.56%) showed activity. Some of the results follow.
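Also: static incubation at 37 °C against the wild-type strain, values averaged over two biological replicates.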

The test system of this assay is Escherichia coli K-12 BW25113. The experiment in a line: relative growth (OD600 normalised to plate interquartile mean) (fraction); higher = less growth inhibition, active = 0.2 or less. The conditions noted are these: 50 µM; LB; incubation time: overnight (16-24 h).
On to `CN1CCN(C(=O)C[C@H]2CC[C@@H]3[C@H](COC[C@H](O)CN3C(=O)C3CCCC3)O2)CC1`, for which the relative growth was inactive: 0.971.

For `C[C@H]1CN([C@@H](C)CO)C(=O)c2cc(NC(=O)Nc3ccc4c(c3)OCO4)ccc2O[C@@H]1CN(C)S(=O)(=O)c1cn(C)cn1`, the relative growth was inactive: 0.951.

`Cc1noc(C)c1NC(=O)Nc1ccc2c(c1)C(=O)N([C@H](C)CO)C[C@H](C)[C@@H](CN(C)C(=O)Nc1cccc3ccccc13)OCCCC[C@@H](C)O2`: the relative growth is inactive: 0.992.

On to `C[C@@H]1CCCCO[C@@H](CN(C)C(=O)CCCN(C)C)[C@H](C)CN([C@H](C)CO)C(=O)c2cc(NS(=O)(=O)c3cn(C)cn3)ccc2O1`, for which the relative growth was inactive: 0.991.

On to `C[C@@H]1CN([C@@H](C)CO)C(=O)c2cc(NC(=O)Nc3ccc(C(F)(F)F)cc3)ccc2O[C@@H](C)CCCCO[C@H]1CN(C)C(=O)Nc1cccc2ccccc12`, for which the relative growth was inactive: 1.01.

Regarding `Cn1nnc2c1CCN(C(=O)CS(C)(=O)=O)[C@@H]2COCC1CC1`, the relative growth was inactive: 1.01.

For `CC(C)NC(=O)Nc1ccc2c(c1)CC(=O)N([C@@H](C)CO)C[C@@H](C)[C@H](CN(C)S(=O)(=O)c1cn(C)cn1)O2`, the relative growth is inactive: 1.02.

Regarding `Cc1ccc(S(=O)(=O)Nc2ccc3c(c2)CC(=O)N([C@@H](C)CO)C[C@@H](C)[C@@H](CN(C)C(=O)NC(C)C)O3)cc1`, the relative growth is inactive: 1.01.

For the compound `N[C@H](C(=O)O)[C@@H]1CC(Cl)=NO1`, the relative growth was inactive: 1.01.

For `O=C1CCNc2cc3ccccc3cc21`, the relative growth is inactive: 0.932.

On to `C[C@H](CO)N1C[C@H](C)[C@H](CN(C)C(=O)Nc2ccc(C(F)(F)F)cc2)Oc2ccc(NC(=O)Nc3cccc4ccccc34)cc2C1=O`, for which the relative growth was inactive: 1.01.

Turning to `C[C@@H](O)Cn1c(=N)n(C)c2ccccc21`, the relative growth was inactive: 0.989.

As to `COc1ccc(S(=O)(=O)Nc2ccc3c(c2)CC(=O)N([C@@H](C)CO)C[C@@H](C)[C@@H](CN(C)S(=O)(=O)c2ccccc2)O3)cc1`, the relative growth is inactive: 0.919.

Turning to `C[C@H]1NC(=O)COC12CCN(C(=O)c1cnccn1)CC2`, the relative growth was inactive: 0.971.

In the case of `C[C@@H]1CCCCO[C@@H](CN(C)C(=O)Cc2ccccc2)[C@H](C)CN([C@H](C)CO)C(=O)c2cc(NC(=O)Nc3ccc(F)cc3)ccc2O1`, the relative growth was inactive: 0.974.

`C[C@@H]1CCCCO[C@H](CN(C)S(=O)(=O)c2ccc(Cl)cc2)[C@@H](C)CN([C@H](C)CO)C(=O)c2cc(NC(=O)Nc3cccc4ccccc34)ccc2O1`: the relative growth is inactive: 1.01.

Take `Cc1noc(C)c1NC(=O)N(C)C[C@@H]1Oc2ccc(NC(=O)c3ccncc3)cc2C(=O)N([C@@H](C)CO)C[C@H]1C`: the relative growth was inactive: 1.01.

(Values after the supplement of paper PMC9446081.)
